# Measurements taken from ChEMBL document CHEMBL4888484, “Replenishing the malaria drug discovery pipeline: Screening and hit evaluation of the MMV Hit Generation Library 1 (HGL1) against asexual blood stage Plasmodium falciparum ,using a nano luciferase reporter read-out” (2022).
# The whole screen tested about 150,000 compounds, of which about 540 (0.36%) showed an effect of 50% or more. Some of the results follow.
# Tested on: Plasmodium falciparum
# Test: Primary screen in NF54 nanoGlo assay, in single point, at 2uM, 72h; a lower Z score goes with more inhibition
# Assay type: functional, Erythrocyte
# Conditions: timepoint 72 hour
SMILES,% Inhibition,Z score
COc1cc(OC)c(NC(=O)Nc2cccc(-c3noc(C4CCC4)n3)c2)cc1Cl,-7%,0.7
Cc1nc(-c2ccnc(NCc3cnc(C4CC4)s3)c2)n[nH]1,-10%,1.24
CC(C)[C@H](CNC(=O)c1cccc[n+]1[O-])Cc1ccccc1,-12%,1.53
CCOc1ncccc1CNC(=NC)NCc1cccs1,-18%,1.71
Cc1nn(S(=O)(=O)Cc2ccccc2)c(C)c1Cl,-2%,0.27
CC(C)NC(=O)c1ccc(-c2cncnc2)o1,1%,-0.12
Cc1ccn(CCn2ccc(-c3cccc(-c4cnccn4)c3)n2)n1,-8%,1.5
CC(C)CN1CC[C@H](CNC(=O)c2ccc(NC3CCC3)nc2)C1,-7%,0.9
COc1cccn2cc(CCN3C(=O)c4ccccc4C3=O)nc12,-4%,0.46
C[C@@H]1CCCN1Cc1ccc(-c2cncnc2)cc1Cl,-3%,0.54
CC1CCC(Cn2c(N)nc(C#N)c2C#N)O1 (stereo not given),-8%,1.08
CC1(C)CO[C@H](c2cccc(Cl)c2)CN1C(=O)CS(C)(=O)=O,0%,0.08
COC(=O)N(C)CC(=O)NCc1ccco1,-50%,5.82
CN(CC#N)C(=O)[C@@H]1COCC(=O)N1Cc1ccccc1,-3%,0.59
COC(=O)[C@H](CC(C)C)OC(=O)CN1CCS(=O)(=O)CC1,7%,-0.89
CNC(=O)N1CCC2(C)C(C1)C2(F)F (stereo not given),-6%,0.91
COc1nc2c(cc1CNC(=O)c1ccccc1O)C(=O)N(C1CCCC1)C2,-19%,2.89
O=C(N[C@H]1CCCn2ncnc21)c1cccc2c1CCC2,0%,-0.03
COC(=O)c1cc(-c2noc([C@@H](C)c3cnn(C)c3)n2)cn1C,-25%,2.63
CS(=O)(=O)N1CCN=C1N1CCC(Cc2ccccc2)CC1,-1%,0.13
Cn1nc2n(c1=O)C[C@@H](c1nc(-c3cccnn3)no1)CC2,-7%,1.2
Cc1ccc(CN(c2ccc(C(=O)NC3CC4CCC3C4)cc2)S(C)(=O)=O)cc1 (stereo not given),1%,-0.07
CN(C)S(=O)(=O)c1ccc2c(c1)nnn2CCCC(=O)Nc1ccccn1,4%,-0.55
CCn1ncnc1[C@H]1CC(=O)Nc2c1c(C(C)(C)C)nn2C,-9%,1.03
CCc1ncc(CNC(=O)c2cc(C(F)F)n(C)n2)o1,-16%,2.08
Cc1nn(-c2ccccc2)c(N2CCC(C(=O)NCc3cccc(F)c3)CC2)c1-n1c(C)ccc1C,-13%,1.62
CNc1nc(C)nc(O)c1Br,37%,-0.86
Clc1cccc(-c2[nH]c(-c3c4ccccc4c(Cl)c4ccccc34)nc2-c2ccccc2)c1Cl,0%,-0.01

SMILES,% Inhibition,Z score
CC(NC1CCCC1CNC(=O)OC(C)(C)C)C1CCOCC1 (stereo not given),-16%,1.79
COc1cccc(S(=O)(=O)N2CCN(c3cc(C)nc(N4CCOCC4)n3)CC2)c1,-4%,0.48
CCO[C@H]1CCCN(C(=O)C(=O)Nc2ccn(-c3ccccc3)n2)C1,-6%,0.72
Cc1cc(F)ccc1CN1CCCNC(=O)[C@@H]1Cc1ccccc1,3%,-0.47
COC[C@H]1C[C@@H](NC(=O)COc2ccccc2)[C@H](O)[C@@H]1O,-5%,0.69
CCCc1nccn1-c1ccc2cc[nH]c(=O)c2c1,-12%,1.65
COc1cccc(C2CC(C(=O)N3CCCCC3)N(C)S(=O)(=O)N2)c1 (stereo not given),-3%,0.45
CC(C)C1(CNC(=O)[C@H]2CCCN(C3CCN(Cc4cccnc4)CC3)C2)CC1,-7%,0.65
CCn1nc(C)cc1C(=O)N1CCC(CCC(=O)Nc2ccc3c(c2)OCCO3)CC1,-16%,1.46
O=C1NCCCCCN(Cc2c[nH]nc2-c2ccc(F)cc2)[C@H]2CCC[C@@H]12,-9%,1.22
O=S(=O)(c1ccc(Cl)cc1)N1CC(F)(F)C[C@H]1CN1CCc2ccccc2C1,-8%,1.31
COCCN1C[C@@H](Cc2cncc3ccccc23)CC1=O,7%,-0.91
O=C1c2ccccc2C(=O)N1c1ccc2c(c1)OCCO2,-11%,1.35
O=C1CN(C(=O)CCC(=O)N2CCc3ccccc3C2)CCN1,-11%,1.31
CN1CC[C@H](Cc2nc(-c3cnc(OCC(F)F)cn3)no2)C1,1%,-0.07
CC[C@@H](C(=O)NCCc1ccccn1)n1cccn1,-3%,0.53
CCOc1cc(N2Cc3cn[nH]c3C2)ncn1,-7%,0.78
CN1CCN(c2cccc(NC(=O)NCCc3nccs3)c2)C1=O,-14%,1.83
Cc1nnc(CNC(=O)C(C)(C)Oc2ccc3c(c2)CCC3)o1,-14%,1.53
CCn1ncc(C(=O)N2CCC[C@@](F)(c3nc(C)no3)C2)c1C,-8%,1
O=C(N[C@H]1CC[C@@H](CO)CC1)c1csc(N2CCCCC2)n1,-7%,1.15
O=C1C[C@@H](c2ccc(F)c(F)c2)c2ccc(O)cc2N1,4%,-0.51
Cc1ccc(-c2ccccc2CN(Cc2cccnc2)C[C@@H]2CCC(=O)N2)o1,4%,-0.63
Cc1cc(N[C@H](CO)Cc2ccccc2)n2nccc2n1,-12%,2.3
CCn1c(=O)c(N2CCN(C(=O)Nc3cccc(C(F)(F)F)c3)CC2)nc2ccccc21,31%,-0.97
CCS(=O)(=O)N1CCN(c2nc[nH]n2)CC1,-4%,0.78
CS(=O)(=O)C1CC2CCC(C1)N2S(=O)(=O)c1cccc(-c2ccc(Cl)cc2)c1 (stereo not given),-14%,1.84
